# Reference: PubChem BioAssay AID1454 (National Center for Advancing Translational Sciences (NCATS), 2008)
# Out of some 130,000 compounds screened, about 550 (0.42%) were called active. The shares of active, inactive and inconclusive entries below differ from those in the screen. The call rests on the fitted dose curve; in most records, active means well fitted inhibition curve with a large enough effect; inconclusive means small, poorly fitted or top-dose-only effect, or effect the other way; inactive means flat fitted curve, though single readings scatter. Potencies of inconclusive entries are left out as doubtful fits.
# Assay: qHTS Assay for Inhibitors of the ERK Signaling Pathway using a Homogeneous Screening Assay; Stimulation with EGF; further: nearly all actives have a fitted effect of over 55% in size;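 on activity change, negative = inhibition: plate controls were stimulated vehicle wells for no effect and unstimulated vehicle basal for full effect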
# Conditions: HEK293-V1b, EGF-stimulated phospho-ERK AlphaScreen; activity change, negative = inhibition: at the top concentration
# Outline: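 Readout: AlphaScreen signal for phosphorylated ERK in lysed HEK293 cells stably expressing V1b. Stimulus 25 nM EGF, 5 min, following 30 min compound exposure. Data scaled to DMSO basal and full EGF activation.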
# Potency means the concentration at half of the fitted maximal effect; tags describe the fitted curve by direction and shape.
Structure (SMILES),"activity change, negative = inhibition",Potency
COc1ccc(-c2cc(C(=O)Nc3sc4c(c3C#N)CCCC4)c3ccccc3n2)cc1,inactive: 0.742%,
CN(C)c1ccc(-c2nc(NC3CCNCC3)c3ccccc3n2)cc1,inactive: 29.7%,
c1ccc(-c2cccc(N3CC4(CCNCC4)C3)c2)cc1,,"inconclusive [inhibitor, partial curve]"
Cc1cc(C)n(-c2nnc(NC34CC5CC(CC(C5)C3)C4)nn2)n1,,"inconclusive [inhibitor, single point]"
O=C(c1ccncc1)c1ccc(N2CCN(C3CC(=O)N(Cc4cccs4)C3=O)CC2)cc1 (stereo not given),,"inconclusive [inhibitor, single point]"
COc1ccc(/C=N/Nc2nc3ccccc3s2)cc1O,,"inconclusive [inhibitor, partial curve]"
N#C/C(=N\Nc1ccc([N+](=O)[O-])cc1)C(N)=S,,"inconclusive [inhibitor, partial curve, poor fit]"
O=C(O)CSCc1cnn(-c2ccccc2)c1-n1cccc1,,"inconclusive [inhibitor, single point]"
CC(C)C1=CC2=CC[C@@H]3[C@](C)(CO)CCC[C@]3(C)C2CC1 (stereo not given in full),,"inconclusive [activator, full curve, poor fit]"
COc1ccc(C(=O)CCC(=O)Nc2cccnc2)cc1,inactive: 7.39%,
S=C(Nc1ccccc1)c1nc2ccccc2s1,,"inconclusive [inhibitor, single point]"
COc1ccc(/C=N/n2c(-c3ccc(C)cc3)n[nH]c2=S)cc1OC,,"inconclusive [inhibitor, partial curve]"
N#Cc1c(-c2ccc(F)cc2)cc(-c2ccccc2)nc1SCC(=O)NCC(=O)O,,"inconclusive [inhibitor, partial curve, poor fit]"
COc1ccc(-c2cn[nH]c2-c2ccc(OCc3ccc([N+](=O)[O-])cc3)cc2O)cc1OC,,"inconclusive [inhibitor, single point]"
Nc1nc(Nc2cccc(F)c2)nc(N2CCOCC2)c1[N+](=O)[O-],,"inconclusive [inhibitor, single point]"
c1ccc(CCC2CCCCN2Cc2nc(-c3ccc4c(c3)OCO4)no2)nc1 (stereo not given),,"inconclusive [inhibitor, partial curve]"
CC(C)Oc1ccc2c(=O)c(-c3ccccc3)coc2c1,,active: 17.8 µM
Cc1cc(C2=NNC(=NC3CC3)SC2)c(C)n1-c1c(C)n(C)n(-c2ccccc2)c1=O,inactive: 8.07%,
COC1=CC(=O)C(O)=C/C1=C\C=C\c1ccccc1,,"inconclusive [inhibitor, single point]"
CCCn1c(C)nc2c(NCCN3CCOCC3)nc(C)nc21,inactive: -9.9%,
COc1cccc(/C=C/C(=C2/C(=O)N(c3ccccc3)N=C2C)c2ccc(Br)cc2)c1OC,,"inconclusive [inhibitor, full curve]"
CCN1C(=O)/C(=C2\C=Cc3cc(C)ccc3N2CC)OC1=S,,"inconclusive [inhibitor, partial curve]"

Structure (SMILES),"activity change, negative = inhibition",Potency
CO[C@H]1C=CO[C@@]2(C)Oc3c(C)c(O)c4c(O)c(c(C=NN5CCN(C)CC5)c(O)c4c3C2=O)NC(=O)C(C)=CC=C[C@H](C)[C@H](O)[C@@H](C)[C@@H](O)[C@@H](C)[C@H](OC(C)=O)[C@@H]1C,,"inconclusive [inhibitor, single point]"
O=C(O)c1ccc(-c2nc(-c3ccccc3Cl)cs2)cc1,inactive: 1.42%,
CC1C/C(=N\Nc2ccc(S(N)(=O)=O)cc2[N+](=O)[O-])CC(C)(C)C1 (stereo not given),,"inconclusive [inhibitor, single point]"
Nc1c[n+](N2CCOCC2)no1,inactive: -14.1%,
O=C(c1ccc2c(c1)OCO2)C1CCCN(Cc2cccn2-c2cccnc2)C1 (stereo not given),,"inconclusive [inhibitor, partial curve, poor fit]"
CC(C)c1cc(C(=O)NNC(=S)NCc2ccco2)c(O)c(C(C)C)c1,,"inconclusive [inhibitor, partial curve]"
CC(C)NC(=O)N1CCC2(CC1)CCN(C(=O)c1cccc(F)c1)CC2,inactive: 4.08%,
Cc1noc(C)c1COc1cccc(C(=O)NCCc2c[nH]c3ccccc23)c1,,"inconclusive [inhibitor, single point]"
Nc1ccc(Nc2ccc([N+](=O)[O-])cc2[N+](=O)[O-])cc1,,"inconclusive [inhibitor, single point]"
CCc1cc2cc(C)c(C)cc2nc1SCC(=O)Nc1cc(C)on1,inactive: -13.5%,
CN1C(=O)C2C(c3ccc(N(C)C)cc3)=NN(Cc3ccccc3)C2C1=O (stereo not given),,"inconclusive [inhibitor, single point]"
CCOc1cc(-c2c(C#N)c(N)nc3c2CCc2ccccc2-3)ccc1O,,"inconclusive [inhibitor, single point]"
Cc1ccccc1OCC(=O)OCC(=O)Nc1cc(C(F)(F)F)ccc1N1CCOCC1,inactive: -7.02%,
CS(=O)(=O)N1CCC2(CC1)CN(C(=O)Nc1cccc(C#N)c1)C2,,"inconclusive [inhibitor, single point]"
CCCCC1=CC2=C(c3ccco3)C(=O)C(C)(OC(=O)c3ccc(OC)cc3)C(=O)C2=CN1c1ccc(OC)cc1 (stereo not given),,"inconclusive [inhibitor, single point]"
CN(C)CCCNc1ccc(-c2cc(Nc3cccc(Cl)c3)ncn2)cn1,,"inconclusive [inhibitor, single point]"
CNc1nc(N/N=C/c2ccc([N+](=O)[O-])cc2)nc(Nc2ccccc2)n1,,"inconclusive [inhibitor, partial curve]"
COC(=O)Nc1ccc(S(=O)(=O)N2CCCC(C(=O)N3CCN(C)CC3)C2)cc1 (stereo not given),,"inconclusive [inhibitor, partial curve]"
CCOc1ccc(C2NC(=O)NC(C)=C2[N+](=O)[O-])cc1OC (stereo not given),,"inconclusive [inhibitor, single point]"
CC1=NN(c2ccccc2)C(=O)/C1=C/C=C/c1ccc(N(C)C)cc1,,active: 7.08 µM
O=C(CCCN1C(=O)/C(=C\c2cccc(Br)c2)SC1=S)Nc1cccnc1,,"inconclusive [inhibitor, single point]"
COc1cc(CNc2ccc(N3CCOCC3)cc2)cc(Br)c1OC,,"inconclusive [inhibitor, single point]"

Structure (SMILES),"activity change, negative = inhibition",Potency
CNC(=O)Nc1cccc(C(F)(F)F)c1,inactive: 0.109%,
CCN1CCN(C(c2ccccc2)c2nnnn2Cc2ccc3c(c2)OCO3)CC1 (stereo not given),,"inconclusive [inhibitor, single point]"
O=C(CN1C(=O)/C(=C/c2ccccc2)SC1=S)NNC(=O)c1ccccc1O,,active: 14.1 µM
O=C(COc1ccc(/C=N/NC(=O)CSCc2ccc([N+](=O)[O-])cc2)cc1)NCc1ccco1,,"inconclusive [inhibitor, single point]"
COc1cc(C(=O)OC2CC3CCC2(C)C3(C)C)ccc1OC(C)=O (stereo not given),,"inconclusive [inhibitor, single point]"
O=C(Nc1nc(-c2nc3ccccc3s2)cs1)C1COc2ccccc2O1 (stereo not given),,"inconclusive [inhibitor, single point]"
COc1cc2cc(C)nc(Cc3cccc4ccccc34)c2cc1OC,,"inconclusive [inhibitor, full curve, poor fit]"
CCc1cc2c(nc1CC)CCN(CC/C(C)=N/O[C@@H](C)c1cc(-c3c(C)cc(C)cc3C)no1)C2,,"inconclusive [inhibitor, partial curve]"
O=c1c(-c2cnn(-c3ccccc3)c2)coc2cc(O)ccc12,,"inconclusive [inhibitor, single point]"
CCC1=C2CC[C@H]3C(=O)N(CC)C(=O)[C@H]3[C@H]2[C@@]2(Cc3ccccc3)C(=NCC3CC3)OC(=O)N2C1=O,inactive: 1.63%,
COc1ccc([C@H]2C=C3CN(C(=O)OC(C)(C)C)S(=O)(=O)[C@H]3C[C@H]2OC(=O)c2cccs2)cc1,,"inconclusive [inhibitor, single point]"
Cc1nc(NC2CCCCC2)c2nc(-c3ccccc3)n(CCCN3CCOCC3)c2n1,inactive: 6.17%,
Cc1ccccc1N1CCN(C(=S)c2ccc(-c3ccc([N+](=O)[O-])cc3)o2)CC1,,"inconclusive [inhibitor, partial curve]"
CC1=NN(c2ccc(C)cc2)C(=O)/C1=C\C=C\c1ccccc1,,"inconclusive [inhibitor, single point]"
Cc1cc(C)n(/N=C/c2cc([N+](=O)[O-])ccc2O)c(=O)c1,inactive: -1.34%,
CCOC(=O)Cn1nnnc1C,,"inconclusive [inhibitor, single point]"
C/C(N=Nc1nc2ccccc2s1)=N\Nc1ccccc1O,,"inconclusive [inhibitor, full curve, poor fit]"
COc1ccc(S(=O)(=O)N2CCCCCC2)cc1NC(=O)c1c2c(nc3ccccc13)CCN(Cc1ccccc1)C2,,"inconclusive [inhibitor, single point]"
O=C1CN(C(=O)CNCc2cccc(Cl)c2)c2ccccc2N1,inactive: 4.89% [at 57.5 µM],
COc1ccc(-c2csc(Nc3ccccn3)n2)cc1,,"inconclusive [inhibitor, single point]"
CCN1/C(=C/c2ccc3cc(C)ccc3[n+]2CC)Sc2cc(C)ccc21,,"inconclusive [inhibitor, single point]"
